# Measurements as given in article PMC5892938.
# The list shows a part of the results. The exact form of the protein is not confirmed.
# Molecular target: GST-SBP-ILF3 (Homo sapiens) (UniProt Q12906)
# Experiment: targeted RNA Bind-n-Seq
# Details: RBNS binding buffer: 25 mM Tris pH 7.5, 150 mM KCl, 3 mM MgCl2, 0.1% Tween, 0.5 mg/mL BSA, 1 mM DTT; 27 nM protein, 750 pM RNA pool; temperature not stated; high values mean tight binding; sequences stand for … in GGGUAAAAGCGAGGUGAA…CGGGACAAGUAUUAUGGG
row,Sequence,binding signal (log2 fold change)
1,GUGGUGUGUGUUGGCGUCUAACACACAUCG [gtspaired],-0.682
2,GUGUGGUGUGUUGGCAUCUAACACACUAUA [gtspaired],-0.78
3,GUGUGUUGUGUUGGUGCCUAACACAGCGCA [gtspaired],-0.451
4,UUUUUUUUUUGAGAUGGACGCCAUCUCCUG [tttttgagapaired],0.615
5,UUUUUUUUUUGAGAUGGAUCCCAUCUCCUA [tttttgagapaired],0.0779
6,GGUUGUGGUGUUGGCACCUAACACCGCAGC [gtspaired],-0.429
7,GGUUGUGGUGUUGGAGUCUAACACCGCGAC [gtspaired],-0.149
8,UUUUUUUUUUGAGAACGUAACGUUCUUCUA [tttttgagapaired],-0.0355
9,UUUUUUUUUUGAGAACGGGGCGUUCUUCUA [tttttgagapaired],0.455
10,UUUUUUUUUUGAGAAGGAGUCCUUCUCCUA [tttttgagapaired],0.0912
11,UUUUUUUUUUGAGACGGUUGCCGUCUCCAG [tttttgagapaired],0.456
12,UUUUUUUUUUGAGAUGGGAACUAUCUCCUA [tttttgagapaired],0.467
13,UUUUUUUUUUGAGAUGGAGGCUAUCUCCUA [tttttgagapaired],0.204
14,GUGUGUGGUGUUGGUAUCUAACACCGCACG [gtspaired],-0.722
15,GUGGUGUGUGUUGGCUUCUAACACAUACCG [gtspaired],-0.61
16,UUUUUUUUUUGAGAGGGGCUCCCUCUCCUA [tttttgagapaired],0.539
17,UUUUUUUUUUGAGAAGGACUCCUUCUCCUA [tttttgagapaired],0.123
18,UUUUUUUUUUGAGAUGGACACCAUCUCCUG [tttttgagapaired],0.267
19,UUUUUUUUUUGAGACUGGUACAGUCUCCUG [tttttgagapaired],0.543
20,UUUUUUUUUUGAGACCGAUCCGGUCUCCGG [tttttgagapaired],0.43
21,UUUUUUUUUUGAGAGCGACACGCUCUCCAG [tttttgagapaired],0.144
22,GUGUGGUGUGUUGGCCUCUAACACAUCACA [gtspaired],-0.0659
23,UUUUUUUUUUGAGACUGAUACAGUCUCCUA [tttttgagapaired],0.388
24,UUUUUUUUUUGAGAUGGAUGCCAUUUCCAG [tttttgagapaired],0.454
25,UUUUUUUUUUGAGAUCGAAACGAUCUUCUA [tttttgagapaired],-0.577
26,UUUUUUUUUUGAGACGGGAUCCGUCUCCUA [tttttgagapaired],0.213

row,Sequence,binding signal (log2 fold change)
1,UUUUUUUUUUGAGAUCGGAACGAUCUCCAG [tttttgagapaired],-0.256
2,UUUUUUUUUUGAGAUGGAUACUAUCUCCAG [tttttgagapaired],0.378
3,UUUUUUUUUUGAGACCGGAGCGGUCUCCGG [tttttgagapaired],0.541
4,UUUUUUUUUUGAGAGCGUCACGCUCUCCUA [tttttgagapaired],0.177
5,GUGUGUGGUGUUGGCGCCUAACACCGCACG [gtspaired],-0.388
6,UUUUUUUUUUGAGAUGGACUCCAUCUCCUG [tttttgagapaired],0.262
7,GUGUGUUGUGUUGGUUCCUAACACAGCACA [gtspaired],-0.644
8,UUUUUUUUUUGAGACGGUGACCGUCUUCUG [tttttgagapaired],0.552
9,GGUGUGUGUGUUGGCACCUAACACAUAUAC [gtspaired],-0.446
10,GGUGGUUGUGUUGGCAUCUAACACAAUCGC [gtspaired],-0.466
11,UUUUUUUUUUGAGACUGAUACAGUCUCCAG [tttttgagapaired],0.306
12,UUUUUUUUUUGAGACUGUAACAGUUUUCUA [tttttgagapaired],0.143
13,UUUUUUUUUUGAGAGCGGACCGCUCUCCUA [tttttgagapaired],0.55
14,GUUGUGUGUGUUGGAGCCUAACACACGCAG [gtspaired],-0.454
15,UUUUUUUUUUGAGACGGCAACUGUCUCCAG [tttttgagapaired],0.972
16,UUUUUUUUUUGAGAUGGAGACCAUCUCCGG [tttttgagapaired],0.246
17,UUUUUUUUUUGAGAUGGUUUCCAUCUUCUG [tttttgagapaired],0.107
18,GUUGUGUGUGUUGGAACCUAACACACGCGA [gtspaired],-0.578
19,UUUUUUUUUUGAGAUCGGAGCGAUCUCCUG [tttttgagapaired],0.66
20,GUGUGUUGUGUUGGCCUCUAACACAACGCG [gtspaired],-0.724
21,GGUGGUUGUGUUGGUCCCUAACACAACUAC [gtspaired],-0.552
22,UUUUUUUUUUGAGAGCGGAUCGCUCUCCUA [tttttgagapaired],-0.0456
23,UUUUUUUUUUGAGAACGGGACGUUCUCCAG [tttttgagapaired],0.446
24,UUUUUUUUUUGAGAGGGCCACCCUCUCCUG [tttttgagapaired],0.93
25,GUGGUUGGUGUUGGCGUCUAACACCGACCG [gtspaired],-0.72
26,UUUUUUUUUUGAGACUGAUCCAGUCUCCGG [tttttgagapaired],0.276

row,Sequence,binding signal (log2 fold change)
1,GUGUUGUGUGUUGGCCCCUAACACACAGCA [gtspaired],0.0458
2,UUUUUUUUUUGAGACCGGACCGGUCUCCUG [tttttgagapaired],0.683
3,GUGGUGUGUGUUGGUCCCUAACACAUACCA [gtspaired],-0.526
4,GGUUGUGGUGUUGGAUUCUAACACCGCAGC [gtspaired],-0.31
5,UUUUUUUUUUGAGACCGGUCCGGUCUCCUG [tttttgagapaired],0.515
6,GUGGUGUGUGUUGGCAUCUAACACAUACCA [gtspaired],-0.48
7,UUUUUUUUUUGAGAACGAAUCGUUCUCCUA [tttttgagapaired],-0.554
8,GGUGUGUGUGUUGGCCCCUAACACAUACAC [gtspaired],0.031
9,UUUUUUUUUUGAGACGGUUUCCGUUUCCUA [tttttgagapaired],0.253
10,GUUGUGUGUGUUGGCCUCUAACACACGCAA [gtspaired],-1.18
11,GGUGGUUGUGUUGGUCCCUAACACAGCCGC [gtspaired],-0.23
12,GUGUGUGGUGUUGGCUCCUAACACCAUACA [gtspaired],-0.731
13,GUGGUUGGUGUUGGACCCUAACACCAGCCG [gtspaired],-0.429
14,UUUUUUUUUUGAGAUGGCGACCAUCUUCUA [tttttgagapaired],0.222
15,UUUUUUUUUUGAGACUGCGUCAGUUUCCGG [tttttgagapaired],0.883
16,UUUUUUUUUUGAGACGGCGACCGUCUCCUA [tttttgagapaired],0.3
17,GUGUGUUGUGUUGGCUCCUAACACAACGCG [gtspaired],-0.401
18,GUGUGUUGUGUUGGUGCCUAACACAGCACA [gtspaired],-0.553
19,GUUGGUGGUGUUGGCGUCUAACACCGCCAG [gtspaired],-0.717
20,UUUUUUUUUUGAGACGGCAGCCGUCUCCAG [tttttgagapaired],0.697
21,UUUUUUUUUUGAGACCGAAACGGUCUCCUA [tttttgagapaired],0.266
22,UUUUUUUUUUGAGACCGAUCCGGUCUUCUA [tttttgagapaired],0.32
23,GUGGUGUGUGUUGGAAUCUAACACAUACCA [gtspaired],-0.578
24,UUUUUUUUUUGAGAGCGGUGCGCUCUUCUA [tttttgagapaired],0.36
25,UUUUUUUUUUGAGACUGAAGCAGUUUCCUA [tttttgagapaired],0.333
26,GUGUGUGGUGUUGGCCUCUAACACCGCAUA [gtspaired],-0.489

row,Sequence,binding signal (log2 fold change)
1,UUUUUUUUUUGAGACGGCCACCGUCUUCUG [tttttgagapaired],0.923
2,UUUUUUUUUUGAGACCGGAGCGGUCUCCUG [tttttgagapaired],0.778
3,UUUUUUUUUUGAGACGGGAGCUGUCUCCUA [tttttgagapaired],0.848
4,GUGUGGUGUGUUGGUCCCUAACACACUACG [gtspaired],-0.488
5,GUGUGUUGUGUUGGCAUCUAACACAACGCG [gtspaired],-0.486
6,GUUGGUGGUGUUGGCUCCUAACACCGCCGA [gtspaired],-0.563
7,UUUUUUUUUUGAGAGUGCUACAUUCUCCUA [tttttgagapaired],0.148
8,UUUUUUUUUUGAGAUGGGUACCAUCUCCUG [tttttgagapaired],0.279
9,UUUUUUUUUUGAGACGGAGGCCGUCUUCUA [tttttgagapaired],0.657
10,UUUUUUUUUUGAGACGGACUCCGUUUCCAG [tttttgagapaired],0.315
11,GGUGGUUGUGUUGGACUCUAACACAAUCGC [gtspaired],-1.03
12,UUUUUUUUUUGAGACUGUGUCAGUCUCCGG [tttttgagapaired],0.56
13,UUUUUUUUUUGAGAGCGGGGCGCUCUCCGG [tttttgagapaired],0.375
14,UUUUUUUUUUGAGAUGGAGACCAUCUCCAG [tttttgagapaired],0.349
15,UUUUUUUUUUGAGAGUGCAACAUUCUCCUA [tttttgagapaired],0.0503
16,UUUUUUUUUUGAGACCGAGUCGGUCUCCUA [tttttgagapaired],0.139
17,GUGUGUUGUGUUGGAGCCUAACACAGCGCA [gtspaired],-0.461
18,UUUUUUUUUUGAGAGGGGUACCCUUUCCAG [tttttgagapaired],0.55
19,UUUUUUUUUUGAGACCGGAUCGGUCUCCUA [tttttgagapaired],0.163
20,UUUUUUUUUUGAGAUGGGCACCAUCUCCGG [tttttgagapaired],0.394
21,GUGGUGUGUGUUGGAACCUAACACACGCCG [gtspaired],-1.15
22,UUUUUUUUUUGAGAUGGGAGCCAUCUCCUA [tttttgagapaired],0.358
23,UUUUUUUUUUGAGAUCGGCACGAUCUCCUG [tttttgagapaired],0.538
24,UUUUUUUUUUGAGACUGUGACAGUCUUCUA [tttttgagapaired],0.515
25,UUUUUUUUUUGAGAUGGAAACCAUCUUCUA [tttttgagapaired],-0.0915
